Laboratory results reported in ChEMBL document CHEMBL4888484, “Replenishing the malaria drug discovery pipeline: Screening and hit evaluation of the MMV Hit Generation Library 1 (HGL1) against asexual blood stage Plasmodium falciparum ,using a nano luciferase reporter read-out” (2022).
Out of some 150,000 compounds screened, about 540 (0.36%) showed an effect of 50% or more. Some of the results follow.

These molecules were tested on Plasmodium falciparum (assay: Primary screen in NF54 nanoGlo assay, in single point, at 2uM, 72h; a lower Z score goes with more inhibition). Details: timepoint 72 hour.
Assay type: functional, Erythrocyte
With `CCn1c(=O)c(-c2noc(C(=O)NCCCN3CCOCC3)n2)nn(-c2ccc(C)cc2)c1=O` the “% Inhibition” value was -3% and the Z score was 0.51. `CCCCN(C)S(=O)(=O)N1CC[C@H](CN2CCCCC2)C1` was tested, and the “% Inhibition” value was -9% and the Z score was 1.55. In the case of `O=C(NC[C@H]1CCCN(C(=O)c2ccc3nccn3c2)C1)c1ccccc1`, the “% Inhibition” value was -7% and the Z score was 1.16. For `O=C(NCc1ccccc1)c1cc(NC[C@H]2CCOC2)ccn1`, the “% Inhibition” value was 11% and the Z score was -2.15. In the case of `O=C(NCc1cccnc1)[C@@H]1C[C@@H](O)CN1C1CCN(C(=O)c2ccccc2)CC1`, the “% Inhibition” value was 2% and the Z score was -0.24. With `CCc1csc(CN[C@@H](C)CCc2c[nH]c3ccccc23)n1` the “% Inhibition” value was -14% and the Z score was 1.33. In the case of `Cc1ccc(C(=O)N2Cc3c(C(=O)N4CCCC4)nn(C)c3C2)cn1`, the “% Inhibition” value was -14% and the Z score was 1.77. For `NC(=O)[C@@H]1CCCN1C(=O)c1c[nH]c2ccccc12`, the “% Inhibition” value was -16% and the Z score was 2.12. In the case of `COc1cc2c(cc1OC)CN(C(=O)C1C3CCCCC31)CC2` (stereo unspecified), the “% Inhibition” value was 5% and the Z score was -0.59. `Cc1nc(CNC(=O)N2CCC3CCCCC32)sc1C` (stereo unspecified) was tested, and the “% Inhibition” value was -9% and the Z score was 1.59. For `COc1ccc(-n2nc(C(=O)NCc3ccc(F)cc3)c(=O)n(Cc3cccc(OC)c3)c2=O)cc1`, the “% Inhibition” value was -1% and the Z score was 0.13. `Cc1ccc(-c2ccc(=O)n([C@@H](C)C(=O)N3CCc4ccccc43)n2)cc1` was tested, and the “% Inhibition” value was 0% and the Z score was 0.02. For `Cc1nc2cc(CNS(=O)(=O)c3ccc4c(c3)CCCO4)ccc2n1C1CC1`, the “% Inhibition” value was -6% and the Z score was 0.56. `CC(=O)N[C@H]1CN(C(=O)c2cccc(S(N)(=O)=O)c2)C[C@@H]1C1CC1` was tested, and the “% Inhibition” value was -8% and the Z score was 1.4. `CN(C(=O)CN1CCN(C(=O)c2cccc3cc[nH]c23)CC1)C1CCCCC1` was tested, and the “% Inhibition” value was -4% and the Z score was 0.51. In the case of `O=C(CCCn1cncn1)N1CCc2ncnc(N3CCCC3)c2CC1`, the “% Inhibition” value was -11% and the Z score was 2.14. `Cc1cc2c(cc1C)N(S(=O)(=O)c1c(N)noc1C)CC2` was tested, and the “% Inhibition” value was -8% and the Z score was 1.03. For `COc1ccc(/N=C2\[C@@H](N3CCCCC3)C3(CCCCC3)C(=O)N2c2ccc(Cl)cc2)cc1`, the “% Inhibition” value was 1% and the Z score was -0.11. For `CC(C)(C)OC(=O)CC1(NC[C@H](O)C(F)(F)F)CCOCC1`, the “% Inhibition” value was -5% and the Z score was 0.6. `CCOC(=O)c1cc(NS(=O)(=O)c2cccc3c2N=S=N3)c[nH]1` was tested, and the “% Inhibition” value was -2% and the Z score was 0.38. For `Cn1cc(-c2cc(C(=O)N3CCC[C@H](C(F)(F)F)C3)c3ccccc3n2)cn1`, the “% Inhibition” value was -7% and the Z score was 1.07. In the case of `CCOC(=O)c1c(S(=O)(=O)N2CCC[C@H](C(=O)NCc3ccc4c(c3)OCO4)C2)c(C)n(CC)c1C`, the “% Inhibition” value was -23% and the Z score was 2.13. For `CC(C)(C)CCNCC1(S(C)(=O)=O)CCOCC1`, the “% Inhibition” value was -10% and the Z score was 1.97. With `Cc1noc(C)c1[C@@H](C)C(=O)Nc1cnccn1` the “% Inhibition” value was -9% and the Z score was 0.81. With `COc1ccc(CN(c2cc(C)nc3nc(C(F)(F)F)nn23)C2CC2)c(OC)c1` the “% Inhibition” value was 1% and the Z score was -0.22. For `COc1ccc(S(=O)(=O)c2cnc(N3CCc4ccccc4C3)nc2N)cc1Cl`, the “% Inhibition” value was 2% and the Z score was -0.34. For `CCC(NC(=O)c1cc(-c2ccsc2)n[nH]1)[C@H]1C[C@H](O)C1` (stereo partly specified), the “% Inhibition” value was -5% and the Z score was 0.81. For `CC(C)(C)c1ccc(C(=O)C(=O)Nc2cc(N3CCOC3=O)ccc2F)cc1`, the “% Inhibition” value was -6% and the Z score was 0.72. For `Cc1cc(NC(=O)CC[C@@H](C)[C@H]2CC[C@H]3[C@@H]4CC[C@@H]5C[C@H](O)CC[C@]5(C)[C@H]4C[C@H](O)[C@]23C)n(C2CCS(=O)(=O)C2)n1` (stereo partly specified), the “% Inhibition” value was -15% and the Z score was 1.68. `CC1CN(Cc2csc(CC(=O)Nc3ccccc3)n2)C(C)CO1` (stereo unspecified) was tested, and the “% Inhibition” value was -12% and the Z score was 1.17. For `O=C(NCc1ccccc1)C1CCN(Cc2cc(C#CCO)cs2)CC1`, the “% Inhibition” value was -12% and the Z score was 1.72. With `O=C(OCc1cncs1)c1ccc(N2CCCC2)nc1` the “% Inhibition” value was -12% and the Z score was 1.95. With `COc1c(C)cnc(CNCc2c(C(C)C)nn(C)c2OC)c1C` the “% Inhibition” value was -6% and the Z score was 0.82. For `CC1COCC(C)N1c1nn2cc(-c3ccccc3)nc2s1` (stereo unspecified), the “% Inhibition” value was -14% and the Z score was 1.95. In the case of `COc1cc(-c2c3c(=O)[nH]n(C(C)C)c3nc3[nH]c(=O)n(C)c23)ccc1OC(F)F`, the “% Inhibition” value was -8% and the Z score was 1.49. In the case of `CC(C)(C)OC(=O)N[C@H]1CCCc2cn[nH]c21`, the “% Inhibition” value was 4% and the Z score was -0.5. In the case of `CC(=O)N1CCC([C@@H]2CN(C(=O)c3ccc4ccccc4n3)C[C@H]2CO)CC1`, the “% Inhibition” value was 8% and the Z score was -0.96. In the case of `CN1CC2(C[C@H]1c1nnc(-c3ccccc3)o1)CN(C(=O)NC1CCCC1)C2`, the “% Inhibition” value was -2% and the Z score was 0.25. In the case of `Cc1cn[nH]c1[C@H]1CCCN(S(=O)(=O)c2ccsc2)C1`, the “% Inhibition” value was -7% and the Z score was 0.95. For `COCCn1cncc1CNC(=O)c1ccc(C)nc1C`, the “% Inhibition” value was -4% and the Z score was 0.51. For `O=C(NS(=O)(=O)C1C[C@@H]2CC[C@H]1C2)c1cncc(Br)c1` (stereo partly specified), the “% Inhibition” value was -4% and the Z score was 0.6. `O=S(=O)(c1ccc2c(c1)CCCC2)N1CC2(C[C@H](N3CCCC3)CO2)C1` was tested, and the “% Inhibition” value was -5% and the Z score was 0.74. With `CC(=O)c1ccccc1C(=O)N1C[C@H]2CC[C@@H](C1)N(Cc1ccccc1)C2` the “% Inhibition” value was 5% and the Z score was -0.78. For `O=C(CNC1CCCC1Cc1ccccc1)NC1CCOCC1` (stereo unspecified), the “% Inhibition” value was -1% and the Z score was 0.11. `CC[C@@H](CCO)NC(=O)C1(C#N)CCCCC1` was tested, and the “% Inhibition” value was 6% and the Z score was -0.74. With `CCc1cc(C(=O)N2CCN(C)CC2)nc2cc(-c3ccco3)nn12` the “% Inhibition” value was -4% and the Z score was 0.59. For `CC(OC(=O)CC1CC2CCC1C2)C(=O)N1CCCc2ccccc21` (stereo unspecified), the “% Inhibition” value was 1% and the Z score was -0.15. `CCOC(=O)CNC(=O)N1CCc2onc(-c3cccc4ccccc34)c2C1` was tested, and the “% Inhibition” value was -4% and the Z score was 0.64. For `Cc1cc(F)c(C(=O)Nc2ccsc2C(N)=O)cc1F`, the “% Inhibition” value was 26% and the Z score was -3.55. In the case of `COC(=O)[C@@H](CC(C)C)NC(=O)Nc1ccccc1C(F)(F)F`, the “% Inhibition” value was -12% and the Z score was 2.25. `Cc1cc(CN(C)c2cc(N3CCOCC3)ncn2)no1` was tested, and the “% Inhibition” value was -9% and the Z score was 1.11. With `Cc1oncc1CN1C[C@@H](F)C[C@H]1CNC(=O)C1CCCN1C1CCCC1` (stereo partly specified) the “% Inhibition” value was -6% and the Z score was 0.9. In the case of `CC1CCN(C[C@H]2CCCN(C(=O)c3cc(O)ccn3)C2)CC1`, the “% Inhibition” value was 2% and the Z score was -0.4. In the case of `COc1ccnc(CN2CCCCCCCC2=O)c1OC`, the “% Inhibition” value was 0% and the Z score was 0. In the case of `C=CCOc1nc(OC)nc(N(C)C)n1`, the “% Inhibition” value was 1% and the Z score was -0.13. In the case of `CCOc1ccc(Nc2c3c(nc4nc(-c5ccccc5)nn24)CCCC3)cc1`, the “% Inhibition” value was -13% and the Z score was 1.21. With `CCNC(=O)c1ccc(N[C@H]2CCN(Cc3csc(C)n3)C[C@@H]2O)nc1` the “% Inhibition” value was -6% and the Z score was 1.13. `Cn1cnnc1[C@@H]1CCCN1S(=O)(=O)c1cc(Cl)sc1Cl` was tested, and the “% Inhibition” value was 2% and the Z score was -0.33. With `COCC(C)(C)C(=O)NCc1nc2cnccc2s1` the “% Inhibition” value was -13% and the Z score was 1.65. `Cc1nc(NCc2ccc(Oc3ccccc3)o2)n(C)n1` was tested, and the “% Inhibition” value was 1% and the Z score was -0.16. `COCCc1ncc(-c2c(C)c(-c3cnn(C)c3)nc(N)c2C#N)cn1` was tested, and the “% Inhibition” value was 0% and the Z score was 0. For `CCCNC(=O)N(Cc1ccc(F)cc1)Cc1cc(-c2ccc(C)cc2C)on1`, the “% Inhibition” value was 8% and the Z score was -1.6. With `Cn1c(C(=O)N2CC[C@H](N)C2)ccc1-c1cccc(Br)c1` the “% Inhibition” value was 50% and the Z score was -7.09. For `CCn1c(CN2CC[C@](CO)(c3ccccc3)C2)nc2ccccc21`, the “% Inhibition” value was 5% and the Z score was -0.98. For `CCN(CC(=O)c1c(N)n(CC)c(=O)[nH]c1=O)c1ccccc1`, the “% Inhibition” value was 6% and the Z score was -0.77. For `O=C1CCC2(CCN(C(=O)C(c3ccccc3)c3ccccc3)CC2)N1`, the “% Inhibition” value was -8% and the Z score was 1.08. With `CC(C)c1nnc(-c2coc(S(=O)(=O)N3CCOCC3)c2)o1` the “% Inhibition” value was -13% and the Z score was 1.7. For `O=C(NCC1COC2(CCCCCC2)O1)C1CCCN1C1CCOCC1` (stereo unspecified), the “% Inhibition” value was -14% and the Z score was 1.79. In the case of `Cn1cc(-c2ccnc(C=Cc3ccccc3Br)n2)cn1`, the “% Inhibition” value was 0% and the Z score was -0.05. With `COc1ccc(CCC(=O)Nc2cccc(N3CCCC3=O)c2)cc1` the “% Inhibition” value was -19% and the Z score was 2.41. `COc1ncc(NS(=O)(=O)Cc2ccc(C)cc2)cn1` was tested, and the “% Inhibition” value was 13% and the Z score was -1.62. `O=C(N[C@@H]1CN(Cc2ccc3c(c2)CCO3)C[C@H]1CO)c1cccnc1` was tested, and the “% Inhibition” value was -8% and the Z score was 1.35. For `Cn1ccc2ccn(CC(=O)NCc3ccc4c(c3)OCO4)c(=O)c21`, the “% Inhibition” value was 12% and the Z score was -1.46. For `O=C(Cc1cccc(F)c1)O[C@H](c1nc2ccccc2o1)C(F)(F)F`, the “% Inhibition” value was -3% and the Z score was 0.45. For `c1cc(-c2nc([C@H]3CCOC3)no2)c2[nH]ccc2c1`, the “% Inhibition” value was -3% and the Z score was 0.53. `COc1cccc(-c2nc(NC3CC3)nc3nn(-c4ccccc4)c(N)c23)c1` was tested, and the “% Inhibition” value was -5% and the Z score was 0.65. `CC(C)(C)n1ncnc1NCc1cccc2c1OCC2` was tested, and the “% Inhibition” value was -15% and the Z score was 3.05. In the case of `Cc1cc([C@H](C)NC(=O)CNC(=O)c2ccccc2C)c(C)s1`, the “% Inhibition” value was 4% and the Z score was -0.47. For `COC(C)CNC(C)c1ccc(C#N)cc1` (stereo unspecified), the “% Inhibition” value was 12% and the Z score was -1.56. In the case of `Cc1noc([C@H](C)OC(=O)CN2CCN(Cc3ccccc3)CC2)n1`, the “% Inhibition” value was -3% and the Z score was 0.3. `CN(C)c1ccc(C(=O)N2CCN=C2N2CCCCC2)cc1` was tested, and the “% Inhibition” value was -3% and the Z score was 0.26. With `O=C(COc1ccc(F)cc1)Nc1ccccc1C(=O)NC1CC1` the “% Inhibition” value was 4% and the Z score was -0.53. For `CCc1ccc2nc(N(CCN3CCOCC3)C(=O)c3cc(C)no3)sc2c1`, the “% Inhibition” value was 3% and the Z score was -0.46.
